In all, about 2,300 sequences were measured (“median log2 fold change of GCK-ALFA target abundance (FLAG IP / Myc IP barcode read proportion)”: median about 0.095, lowest 2% from about -0.47 on). The list shows a part of the results.
B1: LC3A_28_686 (protein)
chain: DALTEKLLKQVKEAEEKLLAEDGATVTITIEEPLSEEATEALIKALKEMAEKVKDKKNVTIIISLSRKVSQETIDALADAAEEIEKKYPNITVIIALEER
B2: LC3A_28_768 (protein)
chain: MTIEEEVAAAIAEAKAAVAAGEEAVITINVPDGTTEEDVEKVIKGLEEIAEITKDMPRTAIIVNIDGGVKQENIDKLLDKGEEIEKKYPNVTVIFALDEE
B3: LC3A_141_377 (protein)
chain: RTVTFELVAEGETPEEVVRRMEELEARVLAAYDALGGGEVRVRITVTLTDRETGEVTVEEEEFTADREGIAMALDGALITAASAVMRSPTDIRVTVTLEA
B4: LC3A_74_2078 (protein)
chain: ALTPEESETILEALAQAELLRLLAQEHPERREELLEKAERLREAAEEVIKKSGLDLELYESGGEVLAELWLDKENITVEEALKRAEELLKKVEEILKKLE
B5: LC3A_147_454 (protein)
chain: KVYVITVDALFKNDKELAKEVEEKIKKIAEENGAEVEVEFEEEQVSPTTTEYYLRVTLKTTDEEKAQKAEDEVSELLDETLEKHPEKFLGAIISFEVEEE
B6: LC3A_147_426 (protein)
chain: MVVEVDILVKGEEAVEEVKERFKAIAEELKAKGYKVELKIEVEKLDENTYYIHVTLKVEAETEEDAEEAKNYVLDKIDEIIEELKDRILGSLISVELDEE
B7: LC3A_28_1141 (protein)
chain: SSLVEEAKEKIKADAEADKDEPEVLLRVTVTSSMTVEEAKEIMDYVEEVVEEKKDKETIYIVVDATEPISQEVLDTIVEKLEEIEKKYPNVKSIIALPED
B8: LC3A_3_1709 (protein)
chain: GEELLEEARKILEEQGRSEETIKAVLEALKALLEKGYEEAAKEFIELLKEAKDLSDEIVLDFAEDVKYYVETEDLSEEEVIELIKEEYEIAKNEQEIEEL
B9: LC3A_28_1018 (protein)
chain: SELEEQIEEIEKEVEEAIEKGEDVVVTLEIKGSMSEEEVREAMERVKEIVLEGAEKGKVDLVIDVDKDVSQEKLDIVLEAADEIEEKAPNVNVIIALEER
B10: LC3A_3_1753 (protein)
chain: MEERLEEARKRLEALGFSEEVIEAALEVIELLLERGFEEAVEVLLEELEKLKDLPDEIILEMLEDIKRAVEEEDLNEEEVIEIIREEARVARSESEIIEL
B11: LC3A_free_46_2366 (protein)
chain: VKAEIDIDFLVETKEKAEELAKELEEEIKKIAEKYGVKVKIEVKIIKNPDGTYSLEIEIELEAENKETLQKAVNEIIDSIDKIAEKFNVSYIISVEIIDE
B12: LC3A_3_1370 (protein)
chain: MEEEKAATLAELKAAGKSEETIAAVEKTLDALIEKGYEEAAKTFMELLKELKDLSDEILLAFAEDVLKAVEEEDLSEEELIKFIKEEATIARNEQEIIEL
B13: LC3A_28_1269 (protein)
chain: SAIEAALAAARAAAEAARAAGEPAVIRITVPAGATAADIDRVEAGLREIAAILAGVPDQAIVIDVEAGVAQEHIDRLADTAEAIEAAHPNVTVIIALDED
B14: LC3A_3_1452 (protein)
chain: GEELIKRAEEILRKQGRSEETIEAARRLLKALQEKGYEKAMETLVKELEKMKDVSSEIVLAMLEDILYEVENKDLSEEEVVKIIKSEAAAAISEQEIIEL
B15: LC3A_free_8_2513 (protein)
chain: KSKEFANIAVKILDELEKKVVELLKEKGKSRLEILEAELLIGSIKAEIISLSDKSPEEQLKVVKEGLKELVEALEDVKEEVKKLAEEALKKIEAAKKELE
B16: LC3A_28_887 (protein)
chain: SAALESAQAALAEVKAAVAAGDQSPLVLEVTAPSDQENTEKFIALLEEIAAAASALSGVTIVIDIPESVSQENRDKIIDAAEAIEEKYPNVTVIIALPES
B17: LC3A_free_39_2189 (protein)
chain: SAEEAQKAIEELLALAKEEGEETEELAREIVKLIGEDLEYLKRLLELVKQLKEEGVDLKEALKEALELAKRLKAEGKSKEEIAEAVLELLQDRINLIPID
B18: LC3A_17_556 (protein)
chain: MEELREEIEELLKELEELVKKLKEYDPEAAKRLEKKLEEAKKLLEEGKLREALKTLEEAAREAADIFEELEHIDPEKMSILEMEANGLEIEALSLLMKLE
B19: LC3A_28_913 (protein)
chain: SALDASTAAALAEIAAAAAAGEPAVVRLRVTSADPAEARAEAERALRRLAAAAREHPGVTIIVDAPERVADEVIAVADEVQAELDAENPSNHIIVALEEP
B20: LC3A_28_637 (protein)
chain: SAIDEEIEKLLEEAERAAAAGEEVVLTLEVGGDTDEEDVEKIIEALREVAEILKDLPRTSIIIDVDGGVKQELIDKLADAAEEIEKEYPNVTVIIALDEE
B21: LC3A_3_1502 (protein)
chain: MEELLEETRKILKEMGFSEEVIELAVKALKLLLERGYEKAAETLIELLKEMKDLSNETMLEFMEEVLELLETSDDSEEEIIEKIKEIATIARNAAEIEEL
B22: LC3A_45_1970 (protein)
chain: MARVTIDLLVPKEKAEKALEIIKEKFEELEKKYKGKIRFDRETLEKSYEESKDEEEVYLEVVIEAETRELALEAADEIIEELNKELGYNVAAIISVEDLP
B23: LC3A_147_405 (protein)
chain: YRLTVDIDILIKNKPELVKELVERIEKALKAKGLEVEVEIKEEKIDENTWFIEVKIKVKAETEEEAQEAADLILDIIDEFEEENKDEILGSLISVEIEKE
B24: LC3A_free_8_2548 (protein)
chain: DMEKFVNEVLKLLDEFEEELRKAAKELGLSELDINDLELLVGETIMEVIEKAEEGPEAVLKALKEGLEEIIKEAKELSEELAKEVKKLAEELLKKVEELK
B25: LC3A_free_46_2396 (protein)
chain: IKGYIDILLKGATEEQAKEIAEYMEAKIKEEAAKKGVNVKIEVKIEKDEDGDIFINIEVEMDTDDEQVALDILDAAMDGGLEKAKELGIKASAIISVEKT
B26: LC3A_3_1625 (protein)
chain: LEEEIEETEKELRAAGWSEETLEALRETVELLLEKGYEEAARTLLEEMRALKDLPSEIALAMIEEVRRVVLEEDLDEEELIERIREIARTARNEGEIEEL
B27: LC3A_28_923 (protein)
chain: MSPEEIKKEIREKAEEAIEKGEEVLIEITIDGSISLEEALEIMEELEEEVKKLSEAGIKVYVVVDLDNVSEEVEKAIAERLDEIEEKYPLVSSIIALDEE
B28: LC3A_141_366 (protein)
chain: MTVKLEYEFTAETVEEAVEKMEEIEKEILEKAKEAGAKRAKIKVTIKYTSKDGKEKKEEKIEEETTFENLDLVLDGLLVEIASLASKGKVEVKIEVTLET
B29: LC3A_3_1456 (protein)
chain: VAELKAELTAVLTANGADAATIAAGNALLDALAAKGYEEAMQTVLDEVKKMADVPADILLDMFNDLLTIVNTEDLSEEELIAEIKREAAAAKNEAEIIEL

The binders below were run against MAP1LC3A, Q9H492 (assay: median log2 fold change of GCK-ALFA target abundance (FLAG IP / Myc IP barcode read proportion) (log2 ratio); each designed protein is fused to an ALFA-tag nanobody in HEK293 cells to bring the named protein to FLAG-tagged glucokinase (GCK); Myc marks an untargeted standard; higher = target protein stabilised (more abundant)). Conditions: target protein: 3xFLAG-MCP-GCK-ALFA reporter; HEK293 landing pad (RPLP).
In short: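 An ALFA-nanobody-fused binder library was recombined into HEK293 landing-pad cells and induced with 2 μg mL^−1 doxycycline. Cells were transfected with a plasmid expressing a FLAG-tagged target and a Myc-tagged standard. After 48 h, lysates underwent anti-FLAG and anti-Myc immunoprecipitation, and circular RNA barcodes were reverse transcribed, amplified and sequenced. Target abundance is the per-binder median log2 ratio of FLAG to Myc barcode read proportions. Barcodes needed ≥10^−7 proportion in both replicates, binders ≥3 barcodes per replicate, and a 10^−6 pseudocount was added; the two replicates were pooled.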

Binder | median log2 fold change
B1 | 0.115
B2 | 0.0185
B3 | -0.0212
B4 | -0.228
B5 | 0.0398
B6 | -0.175
B7 | 0.109
B8 | 0.0543
B9 | -0.171
B10 | 0.077
B11 | 0.102
B12 | 0.233
B13 | 0.159
B14 | 0.264
B15 | 0.118
B16 | -0.272
B17 | 0.389
B18 | 0.394
B19 | 0.197
B20 | 0.0754
B21 | 0.315
B22 | 0.0441
B23 | 0.0155
B24 | -0.0101
B25 | 0.0592
B26 | 0.184
B27 | -0.272
B28 | 0.243
B29 | 0.238

From the supplement of paper PMC12632987
